In the antibiotic and cytotoxicity screens of Wong et al. (2023):
The other results are listed elsewhere or left out.

How the values were obtained:
HSkMC = human skeletal muscle cells; experiment: cytotoxicity call (relative viability < 0.9); conditions: 10 µM
HepG2 = experiment: cytotoxicity call (relative viability < 0.9); conditions: 10 µM
S. aureus RN4220 = experiment: growth inhibition call (relative growth <= 0.2); conditions: 50 µM

Cc1ccc(S(=O)(=O)Nc2ccc3c(c2)C(=O)N([C@@H](C)CO)C[C@H](C)[C@@H](CN(C)C(=O)Nc2c(C)noc2C)OCCCC[C@@H](C)O3)cc1
inactive: cytotoxicity call (HSkMC) | cytotoxicity call (HepG2) | growth inhibition call (S. aureus RN4220)

C[C@H](CO)N1C[C@H](C)[C@H](CN(C)C(=O)NC2CCCCC2)Oc2ccc(NC(=O)CCN3CCOCC3)cc2CC1=O
inactive: cytotoxicity call (HSkMC) | cytotoxicity call (HepG2) | growth inhibition call (S. aureus RN4220)

C[C@@H](O)c1ccc2ccccc2c1
inactive: cytotoxicity call (HSkMC) | cytotoxicity call (HepG2) | growth inhibition call (S. aureus RN4220)

O=C(C[C@H]1C[C@@H]2c3cc(NC(=O)c4ccc5c(c4)OCO5)ccc3O[C@@H]2[C@@H](CO)O1)NCc1cccnc1
inactive: cytotoxicity call (HSkMC) | cytotoxicity call (HepG2) | growth inhibition call (S. aureus RN4220)

C[C@H](CO)N1C[C@H](C)[C@H](CN(C)S(=O)(=O)c2cn(C)cn2)Oc2c(NS(=O)(=O)c3cccs3)cccc2C1=O
inactive: cytotoxicity call (HSkMC) | cytotoxicity call (HepG2) | growth inhibition call (S. aureus RN4220)

CCO[C@H]1CN(CC)C[C@@H]1N
inactive: cytotoxicity call (HSkMC) | cytotoxicity call (HepG2) | growth inhibition call (S. aureus RN4220)

CC(C)CC#Cc1cnc2c(c1)C(=O)N([C@H](C)CO)C[C@@H](C)[C@H](CN(C)S(=O)(=O)c1ccccc1)O2
inactive: cytotoxicity call (HSkMC) | cytotoxicity call (HepG2) | growth inhibition call (S. aureus RN4220)

O=Cc1ccccc1OC1OC(CO)C(O)C(O)C1O (stereo not given)
inactive: cytotoxicity call (HSkMC) | cytotoxicity call (HepG2) | growth inhibition call (S. aureus RN4220)

Cc1ccc(S(=O)(=O)N(C)C[C@H]2Oc3ccc(NS(=O)(=O)c4cn(C)cn4)cc3CC(=O)N([C@H](C)CO)C[C@H]2C)cc1
inactive: cytotoxicity call (HSkMC) | cytotoxicity call (HepG2) | growth inhibition call (S. aureus RN4220)

COc1ccc(S(=O)(=O)N(C)C[C@H]2OCCCC[C@@H](C)Oc3ccc(NC(=O)CCC(F)(F)F)cc3C(=O)N([C@@H](C)CO)C[C@H]2C)cc1
inactive: cytotoxicity call (HSkMC) | cytotoxicity call (HepG2) | growth inhibition call (S. aureus RN4220)
